Earlier results in US20030125337A1, “Inhibitors of multidrug transporters” (priority 1998, published 2003).
The source holds more than one record for some entries. This list holds those alone. An entry can have further records. The records of an entry read as repeated measurements on other runs, samples or individuals. Marks in square brackets tell the records apart. A, B and so on number the origins entry by entry.

Test system: S. aureus, E. faecalis and S. pneumoniae
Conditions: cited from earlier work

SMILES: O=C(O)c1cn(C2CC2)c2cc(N3CCNCC3)c(F)cc2c1=O [ciprofloxacin]
- MIC90: 1-5 μg/ml [passage A] and 1-5 μ/ml [passage B]
